# Laboratory results: the supplement of paper PMC4604168 (melanoma cell lines)
# The list shows a part of the results. Repeats are few or missing, and single values can be far off.
# Experiments:
# Assay in all cases: cell count relative to DMSO control; melanoma cells; higher = more viable cells
# Details in all cases: library dose: low library concentration; 72 h
# COLO792 = tested on: COLO792
# COLO800 = tested on: COLO800
# COLO829 = tested on: COLO829
# G361 = tested on: G361
# IPC-298 = tested on: IPC-298
# IST-MEL1 = tested on: IST-MEL1
# LOXIMVI = tested on: LOXIMVI
# MEL-HO = tested on: MEL-HO
# LB2518-MEL = tested on: LB2518-MEL
# 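Also: cell number obtained by counting DAPI-stained nuclei in high-throughput microscope images with image analysis software, screen run in 1,536-well plates.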
compound,measurement,setting,value
"O=C(O)c1ccc2c(c1)nc(Nc1cccc(Cl)c1)c1ccncc12 + Cn1cc(/C=C2\C(=O)Nc3cccnc32)c2ccccc21 [GW441756] (first compound 0.4 µM, partner dose 0.4 µM)",cell count,COLO792,104%
same,cell count,COLO800,101%
same,cell count,COLO829,105%
same,cell count,G361,100%
same,cell count,IPC-298,108%
same,cell count,IST-MEL1,98.3%
same,cell count,LOXIMVI,120%
same,cell count,MEL-HO,98.1%
"O=C(O)c1ccc2c(c1)nc(Nc1cccc(Cl)c1)c1ccncc12 + c1cc(-c2cnn3cc(-c4ccc(OCCN5CCCCC5)cc4)cnc23)ccn1 [Dorsomorphin] (first compound 0.4 µM, partner dose 0.4 µM)",cell count,COLO792,97.2%
same,cell count,COLO800,87%
same,cell count,COLO829,99.4%
same,cell count,G361,74%
same,cell count,IPC-298,88.8%
same,cell count,IST-MEL1,105%
same,cell count,LOXIMVI,67.3%
same,cell count,MEL-HO,90%
"O=C(Nc1cc(C(F)(F)F)cc(C(F)(F)F)c1)c1cc(Cl)ccc1O + Cn1cc(/C=C2\C(=O)Nc3cccnc32)c2ccccc21 [GW441756] (first compound 0.016 µM, partner dose 0.4 µM)",cell count,COLO792,115%
same,cell count,COLO800,76.6%
same,cell count,COLO829,126%
same,cell count,G361,113%
same,cell count,IPC-298,100%
same,cell count,IST-MEL1,97.3%
same,cell count,LOXIMVI,97.8%
same,cell count,MEL-HO,104%
"O=C(Nc1cc(C(F)(F)F)cc(C(F)(F)F)c1)c1cc(Cl)ccc1O + Cc1cc([N+](=O)[O-])ccc1NS(=O)(=O)c1cc(Cl)ccc1Cl [FH535] (first compound 0.016 µM, partner dose 1 µM)",cell count,COLO792,92.4%
same,cell count,COLO800,176%
same,cell count,COLO829,103%
same,cell count,G361,81.4%
same,cell count,IPC-298,81.4%
same,cell count,IST-MEL1,76.3%
same,cell count,LOXIMVI,105%
same,cell count,MEL-HO,97.6%
"O=C(O)[C@@H]1[O][Sb](=[O])([O][Sb]2(=[O])[O][C@H]([C@H](O)CO)[C@H](O)[C@H](C(=O)O)[O]2)[O][C@H]([C@H](O)CO)[C@@H]1O (stereo not given in full) [stibogluconate] + CN(C)S(=O)(=O)c1ccc2c(c1)/C(=C/c1cc3c([nH]1)CCCC3)C(=O)N2 [SU6656] (first compound 2 µM, partner dose 0.4 µM)",cell count,COLO792,105%
same,cell count,COLO800,103%
same,cell count,COLO829,96.7%
same,cell count,G361,89.8%
same,cell count,IPC-298,105%
same,cell count,IST-MEL1,110%
same,cell count,LB2518-MEL,97.9%
same,cell count,LOXIMVI,111%
same,cell count,MEL-HO,102%
"O=C(Nc1cc(C(F)(F)F)cc(C(F)(F)F)c1)c1cc(Cl)ccc1O + C=CCn1c(=O)c2cnc(Nc3ccc(N4CCN(C)CC4)cc3)nc2n1-c1cccc(C(C)(C)O)n1 [MK1775] (first compound 0.016 µM, partner dose 0.02 µM)",cell count,COLO792,89.6%
same,cell count,COLO800,105%
same,cell count,COLO829,108%
same,cell count,G361,86.4%
same,cell count,IPC-298,98.6%
same,cell count,IST-MEL1,88.2%
same,cell count,LOXIMVI,119%
same,cell count,MEL-HO,118%
"O=C(O)c1ccc2c(c1)nc(Nc1cccc(Cl)c1)c1ccncc12 + COc1ccc2c(c1)CCC1C2CCC2(C)C(NCCCCCCN3C(=O)C=CC3=O)CCC12 [U73122] (first compound 0.4 µM, partner dose 0.4 µM)",cell count,COLO792,98.8%
same,cell count,COLO800,80.4%
same,cell count,COLO829,87.4%
same,cell count,G361,83.8%
same,cell count,IPC-298,102%
same,cell count,IST-MEL1,111%
same,cell count,LB2518-MEL,120%
same,cell count,LOXIMVI,41.9%
same,cell count,MEL-HO,95.2%
"O=C(O)[C@@H]1[O][Sb](=[O])([O][Sb]2(=[O])[O][C@H]([C@H](O)CO)[C@H](O)[C@H](C(=O)O)[O]2)[O][C@H]([C@H](O)CO)[C@@H]1O (stereo not given in full) [stibogluconate] + COc1cc2ncnc(Nc3ccc(Oc4ccccc4)cc3)c2cc1OC [SrcI1] (first compound 2 µM, partner dose 2 µM)",cell count,COLO792,102%
same,cell count,COLO800,101%
same,cell count,COLO829,78.2%
same,cell count,G361,104%
same,cell count,IPC-298,93.3%
same,cell count,IST-MEL1,98.6%
same,cell count,LOXIMVI,107%
same,cell count,MEL-HO,102%
"O=C(O)c1ccc2c(c1)nc(Nc1cccc(Cl)c1)c1ccncc12 + COC(=O)c1sccc1S(=O)(=O)Nc1ccc(Nc2ccccc2)cc1OC [GSK0660] (first compound 0.4 µM, partner dose 1 µM)",cell count,COLO792,94.1%
same,cell count,COLO800,80.3%
same,cell count,COLO829,77%
same,cell count,G361,98.9%
same,cell count,IPC-298,93.7%
same,cell count,IST-MEL1,99.3%
same,cell count,LB2518-MEL,130%
same,cell count,LOXIMVI,81.3%
same,cell count,MEL-HO,89.5%
"Cn1nnc2c(C(N)=O)ncn2c1=O [temozolomide] + CC(C)(C)c1cnc(CSc2cnc(NC(=O)C3CCNCC3)s2)o1 [SNS-032] (first compound 2 µM, partner dose 0.01 µM)",cell count,COLO792,81.3%
same,cell count,COLO800,74%
same,cell count,COLO829,93%
same,cell count,G361,103%
same,cell count,IPC-298,95.1%
same,cell count,IST-MEL1,93%
same,cell count,LB2518-MEL,94%
same,cell count,LOXIMVI,55.8%
same,cell count,MEL-HO,116%
"O=C(Nc1cc(C(F)(F)F)cc(C(F)(F)F)c1)c1cc(Cl)ccc1O + O=C(O)c1ccc(-c2c[nH]c3ncc(-c4ccccc4)cc23)cc1C1CCCC1 [GSK650394] (first compound 0.016 µM, partner dose 0.16 µM)",cell count,COLO792,99.3%
same,cell count,COLO800,88.6%
same,cell count,COLO829,106%
same,cell count,G361,79.6%
same,cell count,IPC-298,95.1%
same,cell count,IST-MEL1,91.2%
same,cell count,LB2518-MEL,96.5%
same,cell count,LOXIMVI,157%
same,cell count,MEL-HO,86.1%
"O=C(Nc1cc(C(F)(F)F)cc(C(F)(F)F)c1)c1cc(Cl)ccc1O + O=C(Nc1ccccc1)c1cc([N+](=O)[O-])ccc1Cl [GW9662] (first compound 0.016 µM, partner dose 2 µM)",cell count,COLO792,90.6%
same,cell count,COLO800,120%
same,cell count,COLO829,77.8%
same,cell count,G361,106%
same,cell count,IPC-298,102%
same,cell count,IST-MEL1,108%
same,cell count,LB2518-MEL,106%
same,cell count,LOXIMVI,153%
same,cell count,MEL-HO,89.7%
"O=C(O)c1ccc2c(c1)nc(Nc1cccc(Cl)c1)c1ccncc12 + CO[C@@H]1[C@H](N(C)C(=O)c2ccccc2)C[C@H]2O[C@]1(C)n1c3ccccc3c3c4c(c5c6ccccc6n2c5c31)C(=O)NC4 [Midostaurin] (first compound 0.4 µM, partner dose 0.08 µM)",cell count,COLO792,91.8%
same,cell count,COLO800,84.6%
same,cell count,COLO829,64.6%
same,cell count,G361,82.3%
same,cell count,IPC-298,95.7%
same,cell count,IST-MEL1,99.7%
same,cell count,LB2518-MEL,108%
same,cell count,LOXIMVI,25.9%
same,cell count,MEL-HO,71.9%
"O=C(O)[C@@H]1[O][Sb](=[O])([O][Sb]2(=[O])[O][C@H]([C@H](O)CO)[C@H](O)[C@H](C(=O)O)[O]2)[O][C@H]([C@H](O)CO)[C@@H]1O (stereo not given in full) [stibogluconate] + Cc1cc([N+](=O)[O-])ccc1NS(=O)(=O)c1cc(Cl)ccc1Cl [FH535] (first compound 2 µM, partner dose 1 µM)",cell count,COLO792,84.6%
same,cell count,COLO800,93.3%
same,cell count,COLO829,143%
same,cell count,G361,96.1%
same,cell count,IPC-298,86.5%
same,cell count,IST-MEL1,84.8%
same,cell count,LB2518-MEL,91.3%
same,cell count,LOXIMVI,72.9%
same,cell count,MEL-HO,95.3%
"O=C(O)[C@@H]1[O][Sb](=[O])([O][Sb]2(=[O])[O][C@H]([C@H](O)CO)[C@H](O)[C@H](C(=O)O)[O]2)[O][C@H]([C@H](O)CO)[C@@H]1O (stereo not given in full) [stibogluconate] + CC(C)(C)c1cnc(CSc2cnc(NC(=O)C3CCNCC3)s2)o1 [SNS-032] (first compound 2 µM, partner dose 0.01 µM)",cell count,COLO792,92.5%
same,cell count,COLO800,69.3%
same,cell count,COLO829,109%
same,cell count,G361,110%
same,cell count,IPC-298,110%
same,cell count,IST-MEL1,97.6%
same,cell count,LB2518-MEL,111%
same,cell count,LOXIMVI,85.8%
same,cell count,MEL-HO,97.2%
"O=C(O)[C@@H]1[O][Sb](=[O])([O][Sb]2(=[O])[O][C@H]([C@H](O)CO)[C@H](O)[C@H](C(=O)O)[O]2)[O][C@H]([C@H](O)CO)[C@@H]1O (stereo not given in full) [stibogluconate] + COc1cc(N2CCC(N3CCN(C)CC3)CC2)ccc1Nc1ncc(Cl)c(Nc2ccccc2S(=O)(=O)C(C)C)n1 [NVP-TAE684] (first compound 2 µM, partner dose 0.08 µM)",cell count,COLO792,88.2%
same,cell count,COLO800,120%
same,cell count,COLO829,124%
same,cell count,G361,93.9%
same,cell count,IPC-298,89.5%
same,cell count,IST-MEL1,97.4%
same,cell count,LB2518-MEL,119%
same,cell count,LOXIMVI,106%
same,cell count,MEL-HO,102%
"O=C(O)[C@@H]1[O][Sb](=[O])([O][Sb]2(=[O])[O][C@H]([C@H](O)CO)[C@H](O)[C@H](C(=O)O)[O]2)[O][C@H]([C@H](O)CO)[C@@H]1O (stereo not given in full) [stibogluconate] + COc1ccc(COc2ccc(Cc3cnc(N)nc3N)cc2OC)cc1 [GW2580] (first compound 2 µM, partner dose 1 µM)",cell count,COLO792,93.2%
same,cell count,COLO800,92.6%
same,cell count,COLO829,128%
same,cell count,G361,96.5%
same,cell count,IPC-298,94.4%
same,cell count,IST-MEL1,99%
same,cell count,LB2518-MEL,110%
same,cell count,LOXIMVI,126%
same,cell count,MEL-HO,90.8%
"O=C(O)[C@@H]1[O][Sb](=[O])([O][Sb]2(=[O])[O][C@H]([C@H](O)CO)[C@H](O)[C@H](C(=O)O)[O]2)[O][C@H]([C@H](O)CO)[C@@H]1O (stereo not given in full) [stibogluconate] + N#Cc1c(O)c2c(-c3ccc(-c4ccccc4O)cc3)csc2[nH]c1=O [A769662] (first compound 2 µM, partner dose 2 µM)",cell count,COLO792,106%
same,cell count,COLO800,134%
same,cell count,COLO829,157%
same,cell count,G361,102%
same,cell count,IPC-298,100%
same,cell count,IST-MEL1,99.9%
same,cell count,LOXIMVI,93.9%
same,cell count,MEL-HO,110%
"O=C(Nc1cc(C(F)(F)F)cc(C(F)(F)F)c1)c1cc(Cl)ccc1O + COc1cc2ncnc(Nc3ccc(Oc4ccccc4)cc3)c2cc1OC [SrcI1] (first compound 0.016 µM, partner dose 2 µM)",cell count,COLO792,99.3%
same,cell count,COLO800,117%
same,cell count,COLO829,113%
same,cell count,G361,108%
same,cell count,IPC-298,89.6%
same,cell count,IST-MEL1,96.9%
same,cell count,LB2518-MEL,75%
same,cell count,LOXIMVI,137%
same,cell count,MEL-HO,92%
"O=C(O)c1ccc2c(c1)nc(Nc1cccc(Cl)c1)c1ccncc12 + COc1cc(Nc2ncc(F)c(Nc3ccc4c(n3)NC(=O)C(C)(C)O4)n2)cc(OC)c1OC [Tamatinib] (first compound 0.4 µM, partner dose 0.4 µM)",cell count,COLO792,56.4%
same,cell count,COLO800,92.1%
same,cell count,COLO829,90.8%
same,cell count,G361,78.2%
same,cell count,IPC-298,79.2%
same,cell count,IST-MEL1,99.5%
same,cell count,LB2518-MEL,82.5%
same,cell count,LOXIMVI,76.3%
same,cell count,MEL-HO,78.6%
"O=C(O)[C@@H]1[O][Sb](=[O])([O][Sb]2(=[O])[O][C@H]([C@H](O)CO)[C@H](O)[C@H](C(=O)O)[O]2)[O][C@H]([C@H](O)CO)[C@@H]1O (stereo not given in full) [stibogluconate] + O=S(=O)(c1ccccc1)N(CC(F)(F)F)c1ccc(C(O)(C(F)(F)F)C(F)(F)F)cc1 [T0901317] (first compound 2 µM, partner dose 1.4 µM)",cell count,COLO792,107%
same,cell count,COLO800,143%
same,cell count,COLO829,74.3%
same,cell count,G361,86.3%
same,cell count,IPC-298,90.1%
same,cell count,IST-MEL1,111%
same,cell count,LOXIMVI,72%
same,cell count,MEL-HO,83%
"O=C(O)c1ccc2c(c1)nc(Nc1cccc(Cl)c1)c1ccncc12 + NCC(=O)Nc1ccc(-n2nc(C(F)(F)F)cc2-c2ccc3c(ccc4ccccc43)c2)cc1 [OSU03012] (first compound 0.4 µM, partner dose 1 µM)",cell count,COLO792,79.5%
same,cell count,COLO800,124%
same,cell count,COLO829,74.9%
same,cell count,G361,99.3%
same,cell count,IPC-298,85.4%
same,cell count,IST-MEL1,108%
same,cell count,LB2518-MEL,123%
same,cell count,LOXIMVI,90.1%
same,cell count,MEL-HO,96.2%
